Measurements taken from PubChem BioAssay AID1963576 (National Center for Advancing Translational Sciences (NCATS), 2024).
Hit rate of the full screen: of about 46,000 compounds, about 60 (0.1%) were called active. Inconclusive results (about 3%) are left out. Calls come from the whole dose curve; as a rule, active = well fitted inhibition curve with a large enough effect; inconclusive = small, poorly fitted or top-dose-only effect; inactive = no such curve, though single readings can be large or run the other way. The list shows a part of the results.

test: Primary qHTS assay for Inhibitors of ovarian cancer metastasis using an organotypic tumor microenvironment (TME) model.; note: nearly all actives have a fitted effect of over 65% in size;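 for activity change, negative = inhibition: plate controls were DMSO wells for no effect and tomatine positive control wells for full effect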; conditions: SKOV3ip1-GFP adhesion/invasion on 3D omental model, fluorescence; series mostly up to 45.8 µM; activity change, negative = inhibition: at the top concentration
In short: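 Adhesion/invasion was scored as fixed GFP-labeled SKOV3ip1 cell counts (488/509 nm), normalized to DMSO and tomatine controls. Cancer cells in serum-free medium, with four compound doses (0.36-46 umol/L), sat 2 hr at RT then 16 hr at 37 C on a 48 hr fibroblast/mesothelial/ECM culture.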

Activity change, negative = inhibition, inactive:
O=C1CN(C(=O)C2CCCCC2)C(c2ccccc2)c2cc(F)ccc2N1 (configuration not stated) -8.15%
CCOC(=O)c1cnc2ccc(OCC)cc2c1N1CCN(c2cccc(Cl)c2)CC1 -3.81%
CC(C)Oc1ccc(CNC(=O)C2COc3ccccc3C2)cc1 (configuration not stated) -8.13%
O=C(CN1C(=O)COc2ccc(S(=O)(=O)N3CCCC3)cc21)N1CCN(c2ccccc2F)CC1 -9.9%
O=C1CC(c2ccccc2)Cc2[nH]c(=O)c(-c3nc(-c4ccc(F)cc4)cs3)cc21 (configuration not stated) -15.3%
COc1ccc(CC(=O)Nc2ccc(-c3nc4ccccc4s3)cc2Cl)cc1 -2.79%
Cc1cc(NC(=O)C2CCCN(S(=O)(=O)c3ccc(Br)s3)C2)ccc1Br (configuration not stated) -8.55%
COc1cccc(C2=NS(=O)(=O)N(C)C(C(=O)Nc3cccc(O)c3)=C2)c1 -8.83%
Cc1ccc(-c2nnc(SCC(=O)NCCC(C)C)nc2-c2ccc(C)cc2)cc1 4.23%
CCN1CCN(C(c2cccc(Cl)c2)c2c(O)cc(C)n(CCOC)c2=O)CC1 (configuration not stated) 15.1%
Cc1ccc(CCNC(=O)CN2C(=O)COc3ccc(S(=O)(=O)N4CCC(C)CC4)cc32)cc1 -3.19%
Cc1cc(OCC(=O)NCC2(N(C)C)CCCCC2)cc(C)c1Cl -2.63%
Cc1cc2nn(-c3ccc(F)cc3)nc2cc1NC(=O)c1cc(Cl)ccc1Cl 4.12%
N=C1SC(=Cc2ccc(-c3ccc4c(c3)C(=O)NC4=O)o2)C(=O)N1c1ccc(Br)cc1 -17.1%
CCc1ccc(NC(=O)N(Cc2c[nH]c3ccccc23)C2CCCCCC2)cc1 2.92%
COc1ccc(N2CCN(C(CNC(=O)C(=O)NCc3ccc(F)cc3)c3cccnc3)CC2)cc1 (configuration not stated) 1.61%
O=C(NCc1ccccc1)C(=O)NCC(c1ccco1)S(=O)(=O)c1ccccc1 (configuration not stated) -6.99%
COc1ccc(Cl)cc1NC(=O)CSc1nnc(C)n2c1cc1occc12 -0.88%

outcome, inactive:
COc1ccc(-c2noc(-c3ccc(N4CCCCC4)c([N+](=O)[O-])c3)n2)cc1
Cc1ccccc1-c1nc(CS(=O)CC(=O)NCCc2ccc(Cl)cc2)c(C)o1 (configuration not stated)
CCn1cc(C(=O)NCCCN(CC(C)C)CC(C)C)c(=O)c2cc(S(=O)(=O)N3CCc4ccccc4C3)ccc21
CCCN(CCC)c1nn2c(=O)c(C(=O)NCc3cccc(OC)c3)cnc2s1
O=S1(=O)c2ccccc2N(Cc2ccccc2Cl)c2ccccc21
COc1cccc(NC(=O)C(=O)NCCc2sc(-c3cccc(C)c3)nc2C)c1
COc1ccc(Nc2nc(N)nc(CSc3nc4ccccc4s3)n2)cc1
COc1ccc(-c2cc(NCc3ccc(C)cc3)n3cnnc3n2)cc1
CCN1C(=O)c2ccccc2Sc2ccc(NC(=O)Nc3ccc(Br)c(C)c3)cc21
